# Results: PubChem BioAssay AID485281 (National Center for Advancing Translational Sciences (NCATS), 2010)
# About 260 (0.074%) of roughly 350,000 compounds were called active. Inconclusive results, whose numbers are uncertain, are shown with a selection of clear calls. The call rests on the fitted dose curve; in most records, active means well fitted inhibition curve with a large enough effect; inconclusive means small, poorly fitted or top-dose-only effect; inactive means no such curve, though single readings can be large or run the other way. Potencies of inconclusive entries are doubtful fits and often do not repeat.
# Target: Ferritin light chain (Equus caballus) (UniProt P02791)
# Experiment: qHTS Assay for Identification of Novel General Anesthetics; further: nearly all actives have a fitted effect of over 20% in size
# Conditions: apoferritin/1-aminoanthracene competitive binding, fluorescence; activity change, negative = displacement: at 77.5 µM (top of the series)
# Method in brief: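 Probe: 1-aminoanthracene (50% saturated, PBS). Protein: horse-spleen apoferritin, 10 uM. Incubation: 10 min, room temperature. Detection: 380 nm excitation, 535 nm emission. Analysis: normalized response, four-parameter Hill.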
# On the % scale 0 is the no-effect control and ±100 the full control effect; potency means the concentration at half of the fitted maximal effect; tags describe the fitted curve by direction and shape.
# Sequence of UniProt P02791 (P02791 whole entry, looked up): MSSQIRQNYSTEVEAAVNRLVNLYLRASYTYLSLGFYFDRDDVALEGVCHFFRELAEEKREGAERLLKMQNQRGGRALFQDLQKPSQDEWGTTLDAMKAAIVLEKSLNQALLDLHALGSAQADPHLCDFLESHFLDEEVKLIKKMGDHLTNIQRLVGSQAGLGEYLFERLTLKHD
SMILES,Potency,"activity change, negative = displacement"
Fc1ccc(OCc2nc(-c3ccc(Br)o3)no2)c(F)c1,"inconclusive: 31.6 µM [inhibitor, partial curve]",
Cn1c(=O)n(Cc2ccccc2Cl)c(=O)c2c1[nH]c(=S)n2C,,inactive: 0.342%
Cc1ccccc1NC(=O)CN1C(=O)NC(C)(c2ccc3c(c2)OCO3)C1=O (stereo not drawn),"inconclusive: 35.5 µM [inhibitor, partial curve]",
COc1cc(/C=C/C(=O)Nc2cc(S(=O)(=O)N3CCOCC3)ccc2N2CCCC2)cc(OC)c1OC,"inconclusive: 39.8 µM [inhibitor, partial curve]",
NC(=O)CC(NC(=O)Cc1cccc2ccccc12)c1ccc(NC2CC3CCC2C3)c([N+](=O)[O-])c1 (stereo not drawn),"inconclusive: 50.1 µM [inhibitor, single point]",
O=C(COC(=O)C12CC3CC(CC(O)(C3)C1)C2)NC(=O)NCc1ccco1,"inconclusive: 44.7 µM [inhibitor, partial curve]",
O=C(NCc1ccc(C(F)(F)F)cc1)C1CC(c2ccccc2[N+](=O)[O-])=NO1 (stereo not drawn),"inconclusive: 22.4 µM [inhibitor, partial curve]",
C=CCn1c2ccccc2c2nnc(SCC(=O)Nc3c(C)n(C)n(-c4ccccc4)c3=O)nc21,"inconclusive: 35.5 µM [inhibitor, partial curve]",
O=C(CSc1nnc(-c2ccco2)o1)NC(=O)Cc1ccccc1,"inconclusive: 35.5 µM [inhibitor, partial curve, poor fit]",
Cc1cc(C)c(S(=O)(=O)NCCc2cc3ccc(C)cc3[nH]c2=O)c(C)c1,,inactive: -5.14%
Cn1cc([N+](=O)[O-])c(C(=O)NC2CCCCCCC2)n1,"inconclusive: 17.8 µM [inhibitor, partial curve]",
CCOc1ccc(C(CC(=O)O)NC(=O)C(CC)c2ccccc2)cc1 (stereo not drawn),,inactive: -9.77%
O=C(COc1ccccc1[N+](=O)[O-])c1ccccc1,"inconclusive: 25.1 µM [inhibitor, partial curve]",
CCC(=O)Nc1ccc2c(c1)C(=O)N(C)C2=O,,inactive: 174%
COC(=O)[C@H](CC(C)C)NC(=O)Nc1cccc(Br)c1,"inconclusive: 35.5 µM [inhibitor, partial curve]",
O=c1[nH][nH]c2cc(=O)n(-c3cccc(C(F)(F)F)c3)nc12,"inconclusive: 31.6 µM [inhibitor, single point]",
Cc1ccc(-c2cc(-c3ccccc3Cl)[nH]n2)c(O)c1,"inconclusive: 28.2 µM [inhibitor, partial curve]",
C=CCn1c(Cc2cccs2)nnc1SCC(=O)Nc1ccc(C(=O)OCC)cc1,"inconclusive: 35.5 µM [inhibitor, partial curve]",
CCc1nnc(NC(=O)CSc2n[nH]c(-c3ccccc3O)n2)s1,"inconclusive: 31.6 µM [inhibitor, partial curve]",
COc1cc(CCC(=O)OCC(=O)Nc2ccc(C(N)=O)cc2)cc(OC)c1OC,,inactive: -4.63%
O=C(NC(=S)Nc1ccc(Cc2ccncc2)cc1)c1ccccc1F,"inconclusive: 35.5 µM [inhibitor, partial curve]",
COc1cccc(NC(=O)Cc2csc(COc3cccc(C)c3)n2)c1,"inconclusive: 3.55 µM [inhibitor, full curve]",

SMILES,Potency,"activity change, negative = displacement"
COc1ccc(-c2ccc(-c3noc(-c4cccc(OC)c4)n3)c(OC)n2)cc1,,inactive: -2.12%
CC1CCN(C(=O)CCCC(=O)O)CC1,,inactive: 3.15%
CC(=O)c1c(C)[nH]c(C(=O)CN2C(=O)NC(CCc3ccccc3)C2=O)c1C (stereo not drawn),"inconclusive: 35.5 µM [inhibitor, single point]",
COC1=C(N)C(=O)c2nc(-c3nc(C(=O)O)c(C)c(-c4ccc(OC)c(OC)c4O)c3N)ccc2C1=O,,inactive: -6.59%
C(=N\NCc1ccccc1)/c1ccc2ncccc2c1,,inactive: -7.87%
COc1ccc(CC2=CC(=O)c3ccccc3C2=O)cc1,"inconclusive: 25.1 µM [inhibitor, partial curve, poor fit]",
Cc1ccnc(NC(c2ccsc2)c2ccc3ccc(C)nc3c2O)c1 (stereo not drawn),"inconclusive: 17.8 µM [inhibitor, partial curve]",
CCOC(=O)Nc1ccc2c(c1)N(C(=O)N(CC)CC)c1ccccc1CC2,"inconclusive: 35.5 µM [inhibitor, single point]",
CC(=O)n1nc(-c2ccc(C)cc2)nc1NCc1ccco1,,inactive: -7.03%
COC(=O)c1cccc(NC(=O)C2C3CCC(C3)C2C(=O)O)c1 (stereo not drawn),"inconclusive: 39.8 µM [inhibitor, single point]",
Cc1ccc(CSCC2Nc3ccc(C(=O)N4CCN(c5cccc(C)c5)C(C)C4)cc3NC2=O)cc1 (stereo not drawn),"inconclusive: 50.1 µM [inhibitor, single point]",
COc1ccc(N2CC(NC(=O)C(=O)c3c(C)[nH]c4ccccc34)CC2=O)cc1 (stereo not drawn),"inconclusive: 35.5 µM [inhibitor, partial curve]",
CCCCn1c2c(c(=N)c3c1CCC3)CCC2,,inactive: -11.9%
O=C(CSc1nc(=O)n(Cc2ccco2)c2c1CCC2)NCc1ccc(Cl)cc1,"inconclusive: 4.47 µM [inhibitor, full curve]",
C=CCN(CC=C)C(=O)COC(=O)c1n[nH]c2ccccc12,"inconclusive: 25.1 µM [inhibitor, partial curve]",
COc1cc(/C=C/C(=O)OCC(=O)NC(=O)NC(C)(C)C)ccc1OCC#N,"inconclusive: 31.6 µM [inhibitor, single point]",
COc1cccc(SCC2(O)CCN(C(=O)c3ccc(Cl)cc3)CC2)c1,,inactive: -5.76%
CC1CCCCN1C(=O)CSc1c2c(nc3cc(Cl)ccc13)CCCC2 (stereo not drawn),"inconclusive: 28.2 µM [inhibitor, partial curve]",
N/C(=N\OC(=O)c1ccccc1F)c1cccc([N+](=O)[O-])c1,,inactive: -11.7%
CCCCCCc1c(C)c2ccc(OCC(=O)N3CCC[C@H]3C(=O)O)c(C)c2oc1=O,"inconclusive: 28.2 µM [inhibitor, partial curve]",
C/C(=N\NC(=O)c1ccc(Cl)c(Cl)c1)c1cccc(NC(=O)C(C)C)c1,"inconclusive: 25.1 µM [inhibitor, partial curve]",
